Values marked as one replicate rest on one cluster of the flow cell; about a third of the high ones do not repeat.
Each sequence was assayed on ATP (assay: switch fluorescence ratio, 500 uM ATP over buffer (Cy3 cluster intensity, sum of 5 cycles each) (fold (ratio)); higher = stronger signal-on switching upon ATP binding; sequences stand for … in TCGTCGGCAGCGTCAGATGTGTATAAGAGACAGTTTTTTTTTTTTTTTTTTTTTTTTT…TC). Settings: aptamer strand: ATP DNA aptamer (quencher-CACCTGGGGGAGTATTGCGGAGGAAGG + anchor), 100 nM annealed; ATP concentration: 500 uM; one replicate.
In short: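 Clusters carrying Cy3-labelled switching strands on a modified Illumina MiSeq flow-cell were annealed to 100 nM quencher-labelled ATP aptamer and imaged in selection buffer. They were imaged again after 15 min with 500 uM ATP at 22 °C, over five buffer/ATP cycles with NaOH stripping and re-annealing in between. For each cluster, the fluorescence ratio is the summed Cy3 intensity of the target cycles divided by that of the buffer cycles, averaged per switch-domain sequence. Clusters outside 100-1000 RFU were left out.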
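Note: ATP exposure 15 min at 22 °C before imaging.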

| Sequence | switch fluorescence ratio |
| --- | --- |
| ATAGAGGCTT | 1.01 |
| ATAGATATTT | 1.01 |
| ATAGATGTCA | 0.999 |
| ATAGATTAGA | 0.981 |
| ATAGCAAACG | 1.37 |
| ATAGCACTAT | 1.09 |
| ATAGCAGAGT | 0.975 |
| ATAGCATAGA | 1.02 |
| ATAGCCCCAC | 1 |
| ATAGCTAATT | 1.01 |
| ATAGCTCGA | 1.03 |
| ATAGCTCGTC | 1.03 |
| ATAGCTTAAT | 1.01 |
| ATAGCTTTCA | 0.972 |
| ATAGCTTTGT | 1.04 |
| ATAGGAATAA | 0.977 |
| ATAGGAGTTT | 0.975 |
| ATAGGATCGA | 1.17 |
| ATAGGCCGTC | 0.973 |
| ATAGGGAAAG | 0.981 |
| ATAGGGTATG | 0.997 |
| ATAGGGTGAA | 1.04 |
| ATAGGTACTT | 1.03 |
| ATAGGTATCG | 1.03 |
| ATAGGTATGG | 0.944 |

| Sequence | switch fluorescence ratio |
| --- | --- |
| ATAGGTCGGA | 0.998 |
| ATAGGTGCGA | 1.01 |
| ATAGGTGCTC | 1.01 |
| ATAGGTGTAT | 1.02 |
| ATAGTACCAT | 1.08 |
| ATAGTCCCCA | 1.23 |
| ATAGTCTCGC | 0.991 |
| ATAGTCTTAA | 0.93 |
| ATAGTGAAGC | 0.975 |
| ATAGTGATTG | 0.995 |
| ATAGTGCTGG | 1.01 |
| ATAGTGTAGG | 0.999 |
| ATAGTTCACG | 0.97 |
| ATAGTTCATA | 1.01 |
| ATAGTTTGTG | 0.978 |
| ATATAAGTTG | 1.04 |
| ATATACCTCT | 0.986 |
| ATATACGATA | 1.09 |
| ATATAGCGAT | 1.05 |
| ATATATACG | 1.07 |
| ATATATGAGC | 1.06 |
| ATATATGATA | 1.01 |
| ATATCACACT | 1.01 |
| ATATCAGCCC | 0.978 |
| ATATCATTG | 1.05 |

| Sequence | switch fluorescence ratio |
| --- | --- |
| ATATCCTTTT | 1.03 |
| ATATCGACAC | 1.04 |
| ATATCGCAAT | 5.44 |
| ATATCGTGAC | 1.02 |
| ATATGAATGT | 1 |
| ATATGAGCGG | 0.923 |
| ATATGCAAGT | 1.02 |
| ATATGCATTC | 1.05 |
| ATATGCCACG | 1.01 |
| ATATGCCTTG | 0.983 |
| ATATGCGAGT | 1.02 |
| ATATGCGCGT | 0.994 |
| ATATGGAA | 0.946 |
| ATATGGGGAT | 0.976 |
| ATATTAGATC | 0.976 |
| ATATTATAGT | 1.04 |
| ATATTCACCT | 1.19 |
| ATATTCAGAT | 1.04 |
| ATATTCCCGA | 1 |
| ATATTCTTTC | 1.02 |
| ATATTGAACG | 1.04 |
| ATATTGCGCG | 0.996 |
| ATATTTATAT | 1 |
| ATATTTCGCG | 1.01 |
| ATATTTTCTC | 1.02 |

| Sequence | switch fluorescence ratio |
| --- | --- |
| ATATTTTGAG | 0.984 |
| ATCAAAAAGG | 1.02 |
| ATCAAAGACT | 1.04 |
| ATCAAATAAT | 1.05 |
| ATCAACCCCA | 1.05 |
| ATCAAGCTGC | 0.944 |
| ATCAAGTTTG | 1 |
| ATCAATACCC | 1.25 |
| ATCACAATAT | 1.12 |
| ATCACAGGTA | 1.06 |
| ATCACATCA | 1.06 |
| ATCACCGATC | 1.03 |
| ATCACCTTCT | 1.68 |
| ATCACTCCT | 1.04 |
| ATCAGCAAAT | 1.35 |
| ATCAGCGCAT | 1.11 |
| ATCAGGGAGA | 0.993 |
| ATCAGTATAC | 1.09 |
| ATCAGTTACT | 1.04 |
| ATCATAACG | 0.969 |
| ATCATACGGT | 1.03 |
| ATCATAGCTG | 0.947 |
| ATCATATATG | 1.02 |
| ATCATATCGC | 0.993 |
| ATCATCAGGG | 0.968 |
